Experimental data published in paper PMC4336329 (PLoS ONE, 2015).
The whole screen tested about 310,000 compounds, of which about 14,000 (4.5%) showed an effect of 50% or more. Effects have a minus sign here. The list shows a part of the results.

biological target: human ether-à-go-go-related gene (hERG) potassium channel (human, UniProt Q12809); assay: primary screen, population patch clamp on CHO cells stably expressing hERG
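Note: peak tail current of the secondary pulse compared with the same well before compound.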

Sequence of human ether-à-go-go-related gene (hERG) potassium channel (Q12809 whole entry, looked up): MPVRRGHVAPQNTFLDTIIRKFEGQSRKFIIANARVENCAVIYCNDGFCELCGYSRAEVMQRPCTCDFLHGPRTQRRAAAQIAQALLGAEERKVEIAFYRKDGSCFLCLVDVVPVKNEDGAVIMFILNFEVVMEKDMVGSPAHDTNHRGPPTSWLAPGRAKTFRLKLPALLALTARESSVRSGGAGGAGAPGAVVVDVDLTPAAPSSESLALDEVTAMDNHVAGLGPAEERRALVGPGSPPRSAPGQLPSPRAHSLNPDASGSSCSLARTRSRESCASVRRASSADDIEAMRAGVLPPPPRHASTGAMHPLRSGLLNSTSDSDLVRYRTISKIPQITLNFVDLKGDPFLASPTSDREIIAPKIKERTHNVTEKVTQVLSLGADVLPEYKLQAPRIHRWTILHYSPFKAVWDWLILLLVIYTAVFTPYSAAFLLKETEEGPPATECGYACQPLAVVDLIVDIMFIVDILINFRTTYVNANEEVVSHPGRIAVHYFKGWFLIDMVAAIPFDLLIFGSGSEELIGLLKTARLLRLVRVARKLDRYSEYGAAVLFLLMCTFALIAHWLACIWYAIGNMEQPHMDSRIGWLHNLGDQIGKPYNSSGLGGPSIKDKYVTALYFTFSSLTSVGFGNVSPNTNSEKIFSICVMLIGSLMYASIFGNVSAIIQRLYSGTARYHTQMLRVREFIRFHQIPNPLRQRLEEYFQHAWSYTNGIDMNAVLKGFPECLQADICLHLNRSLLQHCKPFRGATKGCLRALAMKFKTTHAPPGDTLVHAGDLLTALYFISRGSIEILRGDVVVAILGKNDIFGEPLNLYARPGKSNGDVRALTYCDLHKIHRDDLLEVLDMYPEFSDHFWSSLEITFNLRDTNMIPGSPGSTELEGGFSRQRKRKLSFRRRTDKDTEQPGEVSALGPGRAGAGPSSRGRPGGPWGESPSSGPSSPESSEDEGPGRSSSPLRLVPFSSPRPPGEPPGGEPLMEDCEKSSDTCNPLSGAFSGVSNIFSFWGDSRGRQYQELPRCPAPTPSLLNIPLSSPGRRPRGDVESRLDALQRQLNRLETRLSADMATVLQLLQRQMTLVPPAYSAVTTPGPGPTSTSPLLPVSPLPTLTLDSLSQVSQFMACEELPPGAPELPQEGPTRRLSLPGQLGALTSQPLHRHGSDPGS

| Structure (SMILES) | hERG current change (%, negative = inhibition) at 10uM [%] |
| --- | --- |
| CN(C)CCCN(C(=O)c1ccc(S(=O)(=O)N2CCCCCC2)cc1)c1nc2ccc(F)cc2s1.Cl | -73.1 |
| Cc1nc(SCC(=O)Nc2nc3ccccc3s2)n[nH]1 | 9.48 |
| CC1CC(CN)CC(CO)C1 (centres unmarked) | 17.6 |
| COc1ccc(N2C(=S)NC3c4cc(Cl)ccc4OC2(C)C3C(=O)N(C)C)cc1 (centres unmarked) | 24.6 |
| CCC(=O)N1CCN(c2ccc(Cl)cc2NC(=O)Cc2ccc(Cl)cc2)CC1 | -54.5 |
| O=C(O)COc1ccc2c3c(c(=O)oc2c1)CCC3 | 5.59 |
| CCOC(=O)CSc1nc(C)c2ccccc2n1 | 0.921 |
| CCOc1ccc(/C=C2\SC(=S)N(CCC(=O)N(CCO)c3ccccc3)C2=O)cc1 | 17 |
| O=C(CSCc1ccc(Br)cc1)N=Nc1c(O)[nH]c2ccccc12 | 11.8 |
| CC1CC(C)CN(S(=O)(=O)c2ccc(C(=O)NCc3ccc4c(c3)OCO4)cc2)C1 (centres unmarked) | 10.1 |
| Cc1cc(Br)ccc1NC(=O)CN(C)C(=O)CN1C(=O)NC(C)(C2CC2)C1=O (centres unmarked) | 14.6 |
| Cc1ccccc1N=C(N)Nc1ccccc1C | 4.87 |
| CCCOC(=O)CSc1nc(N)c(C#N)c(-c2ccco2)c1C#N | 2.95 |
| CCOC(=O)N1CCN(CC(=O)c2c(C)[nH]c3ccccc23)CC1 | -2.94 |
| Cc1c(C(=O)N(Cc2nnc(-c3ccccc3Cl)o2)C2CC2)oc2ccccc12 | -12.6 |
| Cc1cccc(CN2CCC(C(=O)Nc3cccc(-c4cccc(F)c4)c3)CC2)n1 | -74 |
| Cc1ccc(NC(=O)N2CCN(S(=O)(=O)c3ccccc3)CC2)cc1 | 10.2 |
| COc1ccccc1N/C(N)=N/c1nc(C(F)(F)F)cc(=O)[nH]1 | 13 |
| Nc1ccc(O)c2c1C(=O)c1ccccc1C2=O | 14.4 |
| CCCc1cc(=O)oc2cc(OCC(=O)NCCc3ccc(S(N)(=O)=O)cc3)ccc12 | -3.31 |
| CC(C)(C)n1c(=O)[nH]c2c(c1=O)CCC2 | 13.8 |
| CN(Cc1ccccc1)Cc1c[nH]c2ccccc12 | -16.5 |

| Structure (SMILES) | hERG current change (%, negative = inhibition) at 10uM [%] |
| --- | --- |
| C=CCn1c(=O)c2c(nc3n2CCS3)n(C)c1=O | 6.63 |
| COCCN(C(=O)CSc1nnc(-c2ccccc2OC)o1)c1c(N)n(CC(C)C)c(=O)[nH]c1=O | 6.73 |
| CCCCSc1nc(C)cc(SCC(=O)N/N=C/c2ccccc2)n1 | -2.55 |
| COc1cccc(C(C(=O)NC2CCCC2)N(C(=O)c2ccco2)c2ccccc2F)c1OC (centres unmarked) | -0.0716 |
| COc1ccc(C(=O)C[n+]2ccc(C)cc2)cc1.[Br-] | 17.8 |
| CC1(c2nnc(-c3ccc(F)cc3)o2)CC(c2ccc([N+](=O)[O-])cc2)=NO1 (centres unmarked) | -39.7 |
| Cc1c(F)cccc1NS(=O)(=O)c1ccc2c(c1)c(=O)n(C)c(=O)n2C | 3.8 |
| COc1ccc(-c2cnnc(N/N=C/c3c(C)nn(-c4ccccc4)c3Cl)n2)cc1 | 4.22 |
| COc1cccc(NC(=O)CSc2nc3ccccc3c(=O)n2CCCC(=O)N2CCCC2)c1 | -67.3 |
| Cc1cc(C)n2nc(SCC3COc4ccccc4O3)nc2n1 (centres unmarked) | -44 |
| Cc1ccc(N(Cc2ccccc2)C(=O)c2cc(S(=O)(=O)N3CCOCC3)ccc2C)cc1 | -27.4 |
| CC(=O)Nc1nc2ccccc2n1CCN(C)C | -6.46 |
| O=C(Nc1ccc2[nH]c(=S)sc2c1)c1ccccc1 | 8.9 |
| COC(=O)c1c(-c2ccccc2)csc1N | -3.09 |
| COc1cccc(C(=O)NCC(=O)N2CCC3(CC2)NCCc2[nH]cnc23)c1 | -5.51 |
| CS(=O)(=O)N(CC(=O)N/N=C/c1ccccn1)c1ccc(Oc2ccccc2)cc1 | -34.7 |
| c1ccc(-c2nc3ccccc3nc2-c2ccccn2)nc1 | 3.64 |
| COC(=O)C1C(=O)c2c(C)noc2CC1(C)C (centres unmarked) | 25.2 |
| CC(C)c1ccc(/C=C2\NC(=O)NC2=O)cc1 | 5.2 |
| Cc1cccc(C)c1NC(=O)CN(C)C(=O)c1cc(S(=O)(=O)N(C)C)ccc1N1CCCC1 | 14.9 |
| CCOc1ccc(S(=O)(=O)Nc2cc(OC)c(OC)cc2C(=O)O)cc1 | 3.94 |
| CCN(CC)S(=O)(=O)c1ccc(N2CCOCC2)c(NC(=O)C2CCCC2)c1 | -1.03 |
